Data taken from PubChem BioAssay (NCI).
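Cultured in 96-well plates, cells were exposed to test compound for 48 hours across five concentrations. Here, GI50 denotes the concentration required for 50% inhibition of growth. TGI denotes the concentration required for complete inhibition of growth.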

System: NCI-H322M lung
Test: inhibition of tumour cell growth, NCI panel, 48 h

SMILES | TGI [µM] | GI50 [µM]
CC(=O)O[C@H]1CC[C@@]2(C)C(=CC[C@H]3C4=CC=C(C(C)=O)[C@@]4(C)CCC32)C1 (stereo partly specified) | > 100 | –
Cc1cc(C)c(C[N+](C)(C)C)c(C)c1C | > 76.3 | 0.468
O=C(Nc1nc2c(=O)[nH]cnc2s1)c1ccccc1 | > 100 | –
O=C(NCCC(F)(F)C(F)(F)C(F)(F)C(F)(F)F)NC1OC(CO)C(O)C(O)C1O (stereo unspecified) | > 100 | –
COc1ccccc1-c1cc(=O)c2ccccc2[nH]1 | > 100 | –
NC(=Nc1ccc(O)cc1)S(=O)(=O)O | > 100 | –
CCCCCCCC(=O)OC(CBr)COC(=O)C(C)(C)C (stereo unspecified) | > 100 | –
CC(=O)NCCC1CN(C(=O)/C=C\C#C[Si](C)(C)C)c2ccccc21 (stereo unspecified) | > 100 | –
COC(=O)C(CCc1ccccc1I)C1=CCC2(CC1)OCCO2 (stereo unspecified) | > 100 | –
O=C(N=C1SCCN1C(=O)C(C(F)(F)F)C(F)(F)F)C(C(F)(F)F)C(F)(F)F | > 100 | –
Cc1nc2ccc(Nc3nc(NCCN4CCOCC4)nc(Nc4ccc(F)cc4)n3)cc2n1Cc1ccccc1 | 42 | 4.36
CC(=O)OCCOCNC(=S)N/N=C(\C)c1cnc2ccccc2n1 | > 100 | –
Cc1ccc(OCC2OC(n3cnc4nc(Cl)nc(Cl)c43)CC2Oc2ccc(C)cc2)cc1 (stereo unspecified) | 29.5 | –
OCC1OC(n2ccc3c(NO)ncnc32)C(O)C1O (stereo unspecified) | 0.846 | 0.0996
Clc1ccc2[nH]cc(-c3nc(-c4c[nH]c5ncccc45)cs3)c2c1 | 23.3 | 4.29
COC(=O)C(C)(N=Cc1ccccc1)c1ccccc1 (stereo unspecified) | > 100 | –
FC(F)(F)c1ccccc1N1CCN(c2nc(-c3cccs3)nc3ccc(Br)cc23)CC1 | > 100 | –
Cc1cc(-c2[nH]c(C(=O)O)cc2I)on1 | > 100 | –
O=C(O)/C(=C/c1c(O)ccc2ccccc12)c1csc(-c2nc(/C(=C\c3c(O)ccc4ccccc34)C(=O)O)cs2)n1 | 31 | –
CC(C)[C@@H]1CC[C@@H](C)C[C@H]1OC(=O)/C=C1/C2C=CC(O2)C1C(=O)O[C@@H]1C[C@H](C)CC[C@H]1C(C)C (stereo partly specified) | > 100 | –
O=[N+]([O-])c1ccc(N/N=C/c2c(O)ccc3ccccc23)nc1 | > 100 | 6.75
COc1cccc(C(=O)N2CCc3ccccc32)c1OC | > 100 | –
Cn1c(C(C#N)c2nc(Cl)ncc2Br)nc2ccccc21 (stereo unspecified) | > 100 | –
NC(=O)N/N=C/C(/C=N/NC(N)=O)[N+](=O)[O-] | > 100 | –
CC(C)(C)NCc1cc(C(C)(C)C)cc(-c2ccc(Cl)cc2)c1O | 30.1 | –
COc1cc(OC)c2c(O)c3c(cc2c1)CC(C)(C)CC3=O | > 100 | –

SMILES | TGI [µM] | GI50 [µM]
Nc1nc2c(c(=O)[nH]1)N(C=O)C(CNc1ccc(C(=O)N[C@@H](CCC(=O)O)C(=O)O)cc1)CN2 (stereo partly specified) | > 125 | –
O=c1[nH]nc(-c2ccccc2)n1/N=C/c1ccncc1 | > 100 | –
C#CC1(O)C(COP(=O)(O)OC2CC(n3cc(F)c(=O)[nH]c3=O)OC2CO)OC(n2ccc(N)nc2=O)C1O (stereo unspecified) | > 33.9 | 0.0288
CCCCNN | > 100 | –
O=c1nc(Nc2cccc(Cl)c2)oc2cc(Cl)oc(=O)c12 | 43 | 18
CC(C)c1ccc(/C(C(=O)O)=C(\O)C(=O)O)cc1 | > 100 | –
O=C(Nc1ccc(F)cc1)c1c(NC(=O)C(F)(F)F)sc2c1CCCCC2 | 7.87 | 2.03
Cc1c(C(=O)NCCO)[n+](=O)c2cc(Cl)ccc2n1[O-] | > 100 | –
C/C(=N\NS(=O)(=O)c1ccccc1)c1ccccc1 | > 100 | –
COC(=O)c1cc(NC(=O)c2cc(NC(=O)c3cc([N+](=O)[O-])cn3C)cn2C)cn1C | > 100 | –
C1CCN(c2nsc(N3CCCCC3)n2)CC1 | > 100 | –
c1ccc(C2=Nc3nc4ccccc4n3C(c3ccccc3)C2)cc1 (stereo unspecified) | > 100 | –
Cc1ccc(OCC2OC(n3cnc4c(N(C)C)nc(Br)nc43)CC2Oc2ccc(C)cc2)cc1 (stereo unspecified) | > 100 | –
Cn1ccn2c3nc4ccccc4nc3c(=O)c(C#N)c12 | > 100 | –
C=C1C[C@@H](O)C[C@@]2(C)C[C@@H]3OC(=O)C(=C)[C@@H]3C[C@H]12 | 70.8 | –
Nc1ccc2c(c1)NCCN2 | > 100 | –
Cc1c2c(cc3c1[nH]c1ccccc13)C=NCC2 | 34.4 | –
Cc1ccnc2[nH]c(-c3cccc(Cl)c3)cc(=O)c12 | > 100 | –
Cc1ccc(S(=O)(=O)/N=C(\NN)Nc2ccc(Cl)cc2)cc1 | > 100 | –
O=C1CC(=O)c2c(O)cc(O)c(c2O)-c2c(ccc(O)c2O)C2=CC(=O)c3c(O)cc(O)c(c3O2)-c2c1ccc(O)c2O (tested in a mixture with another compound) | > 50 | –
CCCCCCCCCCN(CCCCCCCCCC)CC(=O)c1ccc2cc(Br)c3ccccc3c2c1 | 24.1 | 11.3
COc1cc(/C=C\[N+](=O)[O-])ccc1OCc1ccccc1 | 11.4 | 3.24
COC1CC2C=C(C)/C=C/C=C/C(=O)NC(c3ccccc3)C/C=C/CCC(O)CC(=O)C2=C1O (stereo unspecified) | 1.24 | 0.337
NC(=O)c1cc(Br)cc(C2CCCCC2)c1O | 28.7 | 14.5
O=C1O/C(=C(\Br)c2cccc3ccccc23)c2ccccc21 | > 54.6 | –
Cc1sc2nc(-c3cc([N+](=O)[O-])c(Cl)cc3Cl)c(/C=N/N=C(N)N)n2c1C | 34.9 | –

SMILES | TGI [µM] | GI50 [µM]
CCOC(=O)/C(=C\c1ccc(N(C)C)cc1)S(=O)(=O)C(F)(F)C(F)(F)C(F)(F)C(F)(F)F | > 100 | –
COc1cccc(-c2ccc3c4c2O[C@H]2c5[nH]c6ccccc6c5C[C@@]5(O)[C@@H](C3)N(CC3CC3)CC[C@]425)c1 | 5.34 | –
COCC(=O)CP(=O)(OC)OC | > 100 | –
COc1ccc(S(=O)(=O)O)cc1-n1nc(C(=O)Nc2ccccc2)n[n+]1-c1cc(S(=O)(=O)[O-])ccc1OC | > 100 | –
CN(C)c1nc(NC23CC4CC(CC(C4)C2)C3)nc(N(C)C)n1 | > 20.7 | –
CCCCCC(=O)c1ccc2[nH]c3c(C)cc([N+](=O)[O-])c(C)c3c2c1 | > 100 | –
CCOC(=O)c1cc(C(=O)c2ccccc2)n2nc(-c3ccc(Cl)cc3)ccc12 | 46.7 | –
O=C(Nc1c[nH]c(=O)[nH]c1=O)C(Cl)Cl | > 100 | –
CCOC(=O)C(=Cc1ccccc1[N+](=O)[O-])C(=O)OCC | 25 | 11.3
O=C(c1ccc2ncc(-c3nc(NC4CC4)ncc3F)n2c1)N1CCOCC1 | 9.61 | 2.47
Cc1ccc(S(=O)(=O)NC(=O)NC23CC4CC(CC(F)(C4)C2)C3)cc1 | > 100 | –
O=C(Nc1ccc(Cl)cc1)c1ccc(NC2=C(Cl)C(=O)N(Cc3ccccc3)C2=O)cc1 | 96.3 | 20.8
O=C(CC/C=C(/CS(=O)(=O)c1ccccc1)S(=O)(=O)c1ccccc1)c1ccccc1 | > 100 | –
O=C1C[C@@H]2C(COC(=O)c3ccccc3)N(OCc3ccccc3)C[C@@H]2O1 (stereo partly specified) | > 100 | –
Clc1nc(Cl)c(Cl)c(Cl)n1 | 31.6 | –
CN(C)CCCN1c2nc3ccccc3cc2Sc2cc3ccccc3nc21 | 3 | 1.6
COc1ccccc1NC(=O)n1nc(N)c2ccccc21 | > 100 | > 100
O=C1NC(N/N=C\C(O)C(O)C(O)CO)=N/C1=C/c1ccc(Cl)cc1 (stereo unspecified) | > 100 | –
COc1cc2noc(-c3ccccc3)c2cc1OC | > 100 | –
CC12CCC(C(=O)O1)C(C)(C)O2 (stereo unspecified) | > 100 | –
ClC(Cl)c1nc(-c2cccnc2)n2nc(-c3ccccc3)cc2n1 | 4.92 | 1.53
Cc1cc(O)c2c(c1O)C(=O)C13C(=C2O)C(=O)C2C(O)C1C1C(O)C3C(=O)C3=C(O)c4c(O)cc(C)c(O)c4C(=O)C321 (stereo unspecified) | 1.88 | –
N#Cc1cnc2cc(OC[C@@H](O)CO)c(NC(=O)CC3CSSC3)cc2c1Nc1ccc(OCc2cccc(F)c2)c(Cl)c1 | 1.36 | 0.468
CCOc1cc2c(NCCCN(CCO)CCO)ncnc2c(OCC)c1OCC | > 100 | –
C(=N\OCc1ccccc1)/c1ncccc1C1OCCO1 | > 100 | –
O=C1C(NCCc2ccc(O)c(O)c2)=CC(=O)c2ncccc21 | 38.6 | –

SMILES | TGI [µM] | GI50 [µM]
COc1ccc(/C=C/c2nc(NCCCN(C)C)c3ccccc3n2)cc1 | 20.8 | 5.98
CCOC(=O)c1c(Br)c(-c2ccc(Br)cc2)c(Br)n1C | > 100 | –
CCOC(=O)Nc1c(C#N)[n+]([O-])c2cc(Cl)c(Cl)cc2[n+]1[O-] | 67.1 | –
COC(=O)c1ccccc1C#CC#Cc1ccccc1C(=O)OC | > 10 | –
COCCOC(=O)NC(=O)Nc1ccc(/C(=N/O)c2ccc(Cl)cc2)cc1 | 59.3 | 0.312
N#Cc1c(SCc2ccccc2)nc(-c2ccccc2)[nH]c1=S | 73.1 | –
COc1ccc2c(c1OC)C1=C(C2=O)c2cc3c(cc2CCN1)OCO3 | > 100 | –
Cc1ccc(N=Nc2c(O)ccc3cc(S(=O)(=O)O)ccc23)c(C)c1 | > 100 | –
COc1ccc2[nH]c(Cl)c(/C=C3/C(=O)Nc4cc(C)c(OC)cc43)c2c1 | 26.3 | –
Nc1nnc2cc(Cl)ccc2n1 | > 100 | > 100
CN1c2ccccc2N(C)C2C1N(C)c1ccccc1N2C (stereo unspecified) | > 100 | –
OCCSCc1ccccc1 | > 100 | –
O=c1[nH]c(=O)n(C2OC(CO)C(O)C2O)c2c1CCCC2 (stereo unspecified) | > 100 | –
C=CC1ON(Cc2ccccc2)CCc2cc(OC)c(OC)cc21 (stereo unspecified) | > 100 | –
CCOC(=O)N1CCN(c2ccc3c(C)cc(C)nc3n2)CC1 | > 100 | –
O=C1C=C(Br)C(=O)C12CCc1ccccc12 (stereo unspecified) | 56.2 | –
Clc1ccc(Cc2nc3ccc(CCN4CCN(c5ccccc5)CC4)cc3[nH]2)cc1 | > 100 | –
O=c1c(SSc2coc3cc(F)ccc3c2=O)coc2cc(F)ccc12 | > 100 | –
CN(C)c1ccc(/C=C2\N=C(NN)NC2=O)cc1 | > 100 | –
Cc1sc(C)c(Cc2c(C)sc(C)c2CCl)c1CCl | > 100 | > 100
O=C(NCCCNc1cc(-c2cn(-c3ccccc3)nc2-c2cccc(O)c2)ccn1)c1ccccc1 | 72.6 | 4.45
O=C(O)CCCCCOc1cccnc1/C=N/NC1=NCCN1 | > 100 | –
Clc1cc2c(c(CSC3=NCN(CC4CC4)CN3)c1)OCOC2 | 80.7 | –
CC(=O)N1CCc2c([nH]c3ccc(Br)cc23)C1c1ccccc1 (stereo unspecified) | > 10 | –
